Laboratory results as given in the supplement of paper PMC3334620.
In all, about 33,000 sequences were measured (“E-score (-0.5 to 0.5)”: median about -0.017, highest 2% from about 0.3 on). This is one part of the list.

Molecular target: T1, Sut1 (UniProt P53032)
T1 sequence: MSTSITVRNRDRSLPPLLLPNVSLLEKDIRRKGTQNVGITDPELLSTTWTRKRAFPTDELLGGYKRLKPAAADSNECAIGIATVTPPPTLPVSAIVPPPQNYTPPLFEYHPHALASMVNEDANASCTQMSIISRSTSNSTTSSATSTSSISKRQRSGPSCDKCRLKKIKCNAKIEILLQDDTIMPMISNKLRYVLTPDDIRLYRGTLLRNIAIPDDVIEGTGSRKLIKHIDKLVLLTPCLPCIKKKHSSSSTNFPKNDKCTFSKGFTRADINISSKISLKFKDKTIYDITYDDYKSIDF
Assay: PBM E-score (8-mer binding enrichment) (E-score (-0.5 to 0.5)); higher = stronger / more preferred TF binding; most listed sequences are background and not binding sites
Details: protein concentration: 200 nM; construct: GST-full length
Protocol: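 Universal 'all 10-mer' protein binding microarrays (Agilent AMADID 015681) probed with GST-tagged S. cerevisiae TFs (full-length or DBD) made by in vitro transcription/translation (PURExpress), about 100-200 nM. Bound TF was detected with fluorescent anti-GST. Each ungapped 8-mer (which stands for itself and its reverse complement) is scored by the PBM enrichment score (E-score), a modified Wilcoxon-Mann-Whitney statistic from -0.5 to +0.5, computed with the Universal PBM Analysis Suite. Scale: above 0.35 generally sequence-specific binding.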

Point of comparison: CGCTTCCA, “PBM E-score” value 0.0245. Against it:
- CGATGAAC — higher, 0.0671
- ACAAGTGG — lower, -0.112
- AGGCGGTC — lower, -0.257
- CCTCGCGA — lower, -0.256
- GGACAAGA — lower, -0.143
- ATATTCAA — higher, 0.246
- ACCGGATC — higher, 0.0878
- GTCCCCCA — lower, -0.245
- CCTAAGAA — lower, -0.0499
- GCAATGCC — lower, 0.00926
- CCACGTAA — lower, -0.0674
- GCCGAAAC — higher, 0.105
- AATTAGAT — higher, 0.271
- GCATCGCA — lower, -0.183
- AACGATAC — lower, -0.0812
- GATAGTCC — higher, 0.193
- CCACTCCG — higher, 0.444
- AAGCTACG — lower, -0.221
- CTTAGTCA — lower, -0.0284
- AAGGTTGG — higher, 0.0687
- GATTGAGA — higher, 0.116
- GTATTGGA — the same, 0.0245
- CAGTAATC — lower, -0.105
- AGACAAAG — lower, -0.0899
- AACTTTAT — higher, 0.119
- GCCATGTA — lower, -0.0686
- TAATAACA — higher, 0.163
- ACGATCCA — higher, 0.0515
- GGCTAAAA — lower, -0.00644
- CCTCTAAC — lower, -0.0627
- ACTGACAT — lower, -0.096
- ATAGATCC — lower, -0.0213
- AGACGAGA — lower, -0.196
- CGAATGAG — higher, 0.118
- ATTTTACG — higher, 0.197
- GGGACGTA — lower, -0.12
- AAAAGTGT — lower, -0.0801
- CTTGGGCA — lower, -0.0304
- GCTCCCCA — lower, -0.408
- ATAGATTC — higher, 0.225
- ATACGTAT — higher, 0.203
- AACGATTA — higher, 0.131
- ATCGGCGA — lower, -0.0797
- ATGGCACG — lower, -0.237
- CAACATGG — lower, -0.135
- ACCCTGCA — lower, -0.126
- CTGTAGCC — lower, -0.238
- TGTAGCAA — higher, 0.0562
- GCTCACCA — lower, -0.217
- ATTATGTC — higher, 0.0943
- AAGCTTCC — lower, -0.156
- GGGCAGGA — lower, -0.247
- AATTACCA — higher, 0.242
- GAATCGAC — lower, -0.0287
- CTAACCTA — lower, 0.0178
- GAGACTGA — higher, 0.14
- GCCCATAA — lower, -0.0955
- CGCTTACA — lower, -0.0348
- AGAATACC — higher, 0.132
- AGTACCGG — higher, 0.178
- CTAAGTAG — higher, 0.0529
- GAGGTCGC — lower, -0.189
- CGAGACTC — lower, -0.163
- GACCGGGC — lower, -0.0226
- TAGTTTAA — higher, 0.211
- AACTCATT — lower, 0.0142
- AGTGGCCA — lower, -0.202
- CATGCATG — lower, -0.0882
- ACCGCCGT — lower, -0.0174
- TAACCCTA — lower, -0.115
- GCGTAGCA — lower, -0.141
- CCCGCCAG — lower, -0.224
- CTACGACA — lower, -0.0304
- ACCCAGAG — higher, 0.0429
- CGTTAGGC — lower, -0.162
- CAAAAAGA — higher, 0.159
- AACCTACT — lower, 0.0218
- CTCGGAGC — higher, 0.389
- ACCCCACA — lower, -0.111
- AAGGGTGC — lower, -0.225
- TAGTCTCA — lower, -0.0247
- CATTTCCG — higher, 0.293
- GTCACTAA — higher, 0.0329
- ATTACCGC — higher, 0.107
- TCAAGGGA — lower, -0.123
- GCTTCCCC — lower, -0.339
- ATCAACCC — higher, 0.0629
- AGGCGCGA — lower, -0.0511
- AGCTCCAA — higher, 0.0776
- GGCCTCGA — lower, -0.17
- CCTGGCAA — lower, -0.195
- CACCGACC — lower, -0.226
- ACTGCGAT — lower, -0.0293
- AGACCGCA — lower, -0.0648
- AATGTTAA — higher, 0.217
- CAAGCAAG — lower, -0.13
- GGAGATCC — higher, 0.245
- TTGCAAAA — higher, 0.216
- AATGTCTA — higher, 0.118
- GACCCGTC — lower, -0.239
- CGGGGGGA — lower, -0.486
- CTAAGTTC — lower, -0.0983
- AACATATA — higher, 0.223
- AGGGCTGG — lower, -0.131
- CATTTGGA — higher, 0.112
- AGAGTTCA — lower, -0.0646
- ACCCATTC — lower, 0.0138
- ATTACTAA — higher, 0.191
- GGGGGCCA — lower, -0.294
- ACATGCTG — lower, -0.22
- ATACTATG — higher, 0.141
- AATAAAAC — higher, 0.244
- GGCAAGTA — lower, -0.0619
- CATGATTC — lower, -0.0967
- GTCAGAAA — higher, 0.0805
- ACACAACC — lower, -0.0372
- ATAATGGA — higher, 0.0951
- CGTGCAGC — lower, -0.0878
- CGAAGTGC — lower, -0.018
- GTATTCCA — lower, -0.00791
- TTACTAAA — higher, 0.144
- CCTAGGCG — lower, -0.317
- GACGGGGC — lower, -0.17
- CAACGTTA — higher, 0.0883
- AATTCACA — higher, 0.171
- CCCGTAGC — lower, -0.198
- AATAAGCG — lower, -0.162
- CTACACAC — lower, -0.055
- GTTACTCA — higher, 0.114
- CTTGCGCA — lower, -0.056
- CGGGATGC — lower, -0.143
- CGTGATGC — lower, -0.155
- CCGACGGC — lower, -0.175
- GCGCATTA — higher, 0.069
- AGATCTTA — higher, 0.106
- ATCAAGCG — lower, -0.2
- CATTTCGC — lower, 0.00375
- CTTTGCGC — higher, 0.0622
- AAAATGAA — higher, 0.0412
- CGACGGAC — higher, 0.349
- CCATTGGA — lower, -0.0647
- GATGTGTA — higher, 0.105
- ACATGCGT — lower, -0.0649
- GTTTGAAA — higher, 0.247
- ACAATGTG — lower, -0.0511
- GCCACATA — lower, -0.0199
- CGCTTACC — lower, -0.0431
- CACCACCA — lower, 0.0206
- AAATGCGG — higher, 0.185
- CCTTAACG — lower, -0.00386
- ACCACGTA — lower, -0.231
- GAAGGATC — lower, -0.168
- AGTGCGTA — lower, 0.00152
- CGAGGAAG — higher, 0.0543
- GACAGTGC — lower, -0.004
- ACTTCTCA — lower, -0.033
- CAATACCG — lower, -0.0551
- CGTGAGCA — lower, -0.196
- ATTTTACC — higher, 0.352
- GTTTGGAA — higher, 0.101
- ATAGGCGG — higher, 0.103
- CGCGACAC — higher, 0.0583
- GGACAGAC — lower, -0.169
- CCTTTCAG — lower, -0.203
- CAAGTTAC — higher, 0.168
- GGAGCGCA — lower, -0.225
- CCTTATGA — lower, -0.0897
- TCAGACCA — higher, 0.0278
- AGCTTGAA — lower, 0.00711
- GAACTAAA — higher, 0.17
- ATCATCTG — lower, -0.116
- ACCATTTG — higher, 0.066
- AAGATTTC — higher, 0.2
- AGTAGCTG — higher, 0.0471
- AACTATAT — higher, 0.276
- GAGGCGTA — lower, 0.00054
- CGTGCTAG — lower, -0.234
- CAGTCCCG — lower, -0.0578
- CGTGTCAA — lower, -0.179
- GCGATTAA — higher, 0.0789
- CGAGATGC — lower, 0.00628
- ATCCTTGA — lower, -0.0256
- ATATCAGG — lower, -0.00783
- AATTTCCG — higher, 0.257
- GGGACCCA — lower, -0.183
- ACCCTCAA — lower, -0.00848
- ATTTCAAA — higher, 0.219
- CCTCCGCC — lower, -0.221
- GGTGGGAA — lower, -0.254
- AATAGCTG — lower, 0.0185
- CACGCGCA — lower, -0.141
- CAACTCGA — lower, -0.0149
- CTATAGTA — higher, 0.215
- AGTAGGCG — higher, 0.0779
- ACGACTGA — lower, -0.0425
- ATTGTCTC — higher, 0.0596
- TACTGTAA — higher, 0.175
- CGCCATGA — lower, -0.235
- TGAAACCA — higher, 0.0773
- AGCCTTAT — lower, -0.0244
- GACGGACA — higher, 0.266
- GGGATCAA — lower, -0.0345
- CTCAAGCC — lower, -0.126
- CGGTGGAG — lower, -0.00921
- CGGCCGAA — higher, 0.134
- GAGAGAGC — lower, -0.0633
- AGTAGCTA — higher, 0.124
- CTATCCAG — lower, -0.0682
- GAATGCGA — lower, -0.0837
- GTTTCGGA — higher, 0.334
- GGTAGCAC — lower, -0.295
- AGCATACA — higher, 0.187
- ATTATTTC — higher, 0.306
- AAGTAATT — higher, 0.264
- AGGCCGTG — lower, -0.181
- CACAACGC — lower, -0.165
- CCTCCCAG — lower, -0.254
- AATTGCAA — higher, 0.0746
